Columns and labels:
[1] = biological target: T1, human CXCL3 (Gro gamma) (Homo sapiens, UniProt P19876); assay: Biacore surface plasmon resonance binding to human CXCL3; details: 25° C.
T1 sequence (P19876 35-107): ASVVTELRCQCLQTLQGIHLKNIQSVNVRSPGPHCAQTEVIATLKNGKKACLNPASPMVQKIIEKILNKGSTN
Method: Biacore 2000 instrument and Biacore 2000 Evaluation Software Version 4.1 are used for surface plasmon resonance analysis. A […] chip is prepared using manufacturer's EDC/NHS amine coupling method. Briefly, the surfaces of all four flow cells are activated by injecting a 1:1 mixture of EDC/NHS for 7 minutes at 10 μL/min. Protein A is diluted to 100 μg/mL in 10 mM acetate, pH 4.5 buffer, and immobilized to achieve approximately 10,000 RU onto all 4 flow cells by 7-minute injection at a flow rate of 10 μL/minute. Unreacted sites are blocked with a 7-minute injection of ethanolamine at 10 μL/minute. Two injections of glycine (pH 1.5) for 30 seconds at 10 μL/minute are used to remove any non-covalently associated protein. Running buffer is HBS-EP+.
Antibody 1 or Antibody 2 is diluted to 2 μg/mL in running buffer, and approximately 400-600 RU is captured in flow cell (Fc). Ligands are diluted from 100 μg/mL to 50 nM in running buffer and then two-fold serially diluted in running buffer to 3.125 nM. Duplicate injections of each ligand concentration are injected at 100 μL/min for 150 seconds followed by a dissociation phase. […] The on-rate (kon) and off-rate (koff) for each ligand are evaluated using a “1:1 (mass transfer) Binding” binding model. The affinity […] is calculated from the binding kinetics according to the relationship: KD=koff/kon.

[2] = biological target: T2, human CXCL8 (77 amino acid form) (Homo sapiens, UniProt P10145); assay: FLIPR neutralization using HMEC cells expressing human CXCR2, CXCL8 (77); assay type: cell-based; details: CXCL8 (77) 10 nM; HMEC-huCXCR2 FLIPR
T2 construct: Both the 72 amino acid and 77 amino acid forms of CXCL8 were used
T2 sequence (P10145 23-99 limits assumed): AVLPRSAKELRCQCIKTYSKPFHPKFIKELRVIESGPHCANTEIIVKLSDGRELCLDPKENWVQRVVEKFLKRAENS
Excerpt: (§1) Since all of the ELR+ CXC chemokines can bind CXCR2 receptor, cells expressing CXCR2 were selected for in vitro studies. HMEC-huCXCR2 is an immortalized human endothelial cell line transduced with retrovirus for expression of human CXCR2 receptor. HMEC cells expressing human CXCR2 are able to induce intracellular Ca^2+ influx in response to human, cynomolgus monkey, rat, and mouse ELR+CXC chemokines. Intracellular Ca^2+ influx can be detected by a Fluorescent Imagine £late Reader (FLIPR). Chemokine neutralization should therefore also neutralize intracellular Ca^2+ influx induced by these chemokines.
(§2) HMEC-huCXCR2 is maintained in MCDB 31 medium supplemented with 10% fetal bovine serum, 2× GlutaMax, 1× non-essential amino acids, 1 μg/mL hydrocortisone, 10 ng/mL human Epidermal Growth Factor, and 0.4 μg/mL puromycin at 37° C. in 5% CO2. […] A cell plate and a ligand-antibody plate are loaded into a Fluorescent Imagine Plate Reader (FLIPR-3, Molecular Devices) programmed to transfer 50 μL of ligand-antibody to wells of the cell plate. Fluorescence is recorded every second for 90 seconds. The change in fluorescence (DRFU) is calculated from images 10 to 90. DRFU versus log (antibody concentration) is plotted and IC50 values are determined by nonlinear regression using Graph Pad Prism. […] Data are expressed as the mean of replicates. […]

[3] = biological target: T3, mouse CXCL5 (LIX) (Mus musculus, UniProt P50228); assay: Neutralization of mouse CXCL5 (LIX)
T3 sequence (P50228 41-132): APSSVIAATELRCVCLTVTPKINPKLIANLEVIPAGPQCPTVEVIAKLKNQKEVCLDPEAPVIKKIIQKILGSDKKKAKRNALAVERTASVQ

[4] = system: SKOV3-Luc ovarian cancer cells; assay: SKOV3-Luc ovarian cancer xenograft model; assay type: in vivo, athymic nude female mice
Method: SKOV3-Luc is a human ovary cancer cell line that expresses firefly luciferase gene. SKOV3-Luc cells are often used in vivo to establish human ovarian adenocarcinoma tumor growth.
SKOV3-Luc ovarian cancer cells were mixed 1:1 with matrigel and implanted subcutaneously in the right rear flank of athymic nude female mice at 3.0×10^6 cells per injection. Mice were randomized into 4 groups at baseline according to tumor volume after the xenografts were grown to an average tumor volume of 200 mm^3. Mice received either control IgG4 antibody (2.5 mg/kg once a week), cisplatin (2.5 mg/kg once a week), Antibody 1 (20 mg/kg once a week), or a combination of cisplatin (2.5 mg/kg once a week) and Antibody 1 (20 mg/kg once a week) by intraperitoneal injection.

[5] = biological target: T4, human CXCL1 (Homo sapiens, UniProt P09341); assay: FLIPR neutralization using HMEC cells expressing human CXCR2, CXCL1; assay type: cell-based; details: CXCL1 10 nM; HMEC-huCXCR2 FLIPR
T4 sequence (P09341 35-107): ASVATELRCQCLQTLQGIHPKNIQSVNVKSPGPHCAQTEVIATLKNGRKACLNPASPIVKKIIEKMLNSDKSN
Excerpt: as §1, §2

B1: Antibody 1: antibody with heavy chain SEQ ID NO: 1 and light chain SEQ ID NO: 3, expressed in NSO cells (antibody)
heavy: QVQLVQSGAEVKKPGASVKVSCKASGYEFTSYWIHWVRQAPGQGLEWMGNISPNSGSANYNEKFKSRVTMTRDTSTSTVYMELSSLRSEDTAVYYCAREGPYSYYPSREYYGSDLWGQGTLVTVSSASTKGPSVFPLAPCSRSTSESTAALGCLVKDYFPEPVTVSWNSGALTSGVHTFPAVLQSSGLYSLSSVVTVPSSSLGTKTYTCNVDHKPSNTKVDKRV[human IgG4 Fc with S228P (EU numbers) not spelt out]
light: EIVLTQSPATLSLSPGERATLSCRASQSISNNLHWYQQKPGQAPRLLIYYTSRSVSGIPARFSGSGSGTDFTLTISSLEPEDFAVYYCGQNNEWPEVFGGGTKVEIKRTVAAPSVFIFPPSDEQLKSGTASVVCLLNNFYPREAKVQWKVDNALQSGNSQESVTEQDSKDSTYSLSSTLTLSKADYEKHKVYACEVTHQGLSSPVTKSFNRGEC
[1]
  kon: 7.16 ± 0.08 (1/Ms) × 10^5
[2]
  IC50: 0.358 (±0.078) ug/mL
[3]
  neutralization of mouse CXCL5 (LIX): does not neutralize
[4]; Day 14
  Average Tumor Volume: 109.35 mm^3
[4]; Day 19
  Average Tumor Volume: 173.95 mm^3
[4]; Day 22
  Average Tumor Volume: 234.58 mm^3
[4]; Day 26
  Average Tumor Volume: 364.42 mm^3
[4]; Day 32
  Average Tumor Volume: 739.26 mm^3
[4]; Day 35
  Average Tumor Volume: 821.83 mm^3
[4]; Day 40
  Average Tumor Volume: 1026.68 mm^3
[4]; Day 43
  Average Tumor Volume: 1098.72 mm^3
[5]
  IC50: 0.867 (±0.153) ug/mL
